Source: the supplement of paper PMC12067230
Single values of this set are uncertain.

test: amyloid nucleation score relative to library mode (yeast Sup35 reporter selection) (log enrichment difference); higher = more amyloid nucleation; sequences are the first 22 residues of the Bri2 peptide extended by up to 12 random residues; settings: random library (experiment): 1;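 active = nucleation score significantly above 0 at FDR 0.05; inactive = not significantly above 0 or absent from output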
Procedure: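 Random C-terminal extensions of the 22-aa Bri2 peptide by 12 NNK codons; premature stops give shorter extensions. Peptides were fused to the Sup35 nucleation domain in S. cerevisiae [psi-pin-] and selected on -ADE-URA plates for 7 d at 30 °C. The nucleation score is log(output/input), centred to the mode of each of 3 independent libraries (1 input, 3 technical output replicates), with duplicates merged. Sequences absent from the output ('random_non_nuc') were imputed with the library mode value, so they are given as censored (<). Nucleators are scores significantly >0 at FDR 0.05.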
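Further: [psi-pin-] Saccharomyces cerevisiae expressing SupN fusions, induced by 100 µM Cu2SO4, selected 7 d at 30 °C without adenine and uracil, scored by deep sequencing of output versus input.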

| Sequence | amyloid nucleation score |
| --- | --- |
| EASNCFAIRHFENKFAVETLICATRRAYVSHTRC | inactive |
| EASNCFAIRHFENKFAVETLICATRRPGSGLCGD | 0.103 |
| EASNCFAIRHFENKFAVETLICATRVSFLPGS | 4.16 |
| EASNCFAIRHFENKFAVETLICATS | inactive |
| EASNCFAIRHFENKFAVETLICATSCPRLLLAI | inactive |
| EASNCFAIRHFENKFAVETLICATSNSEARVRLG | inactive |
| EASNCFAIRHFENKFAVETLICATTAPSQGSREA | inactive |
| EASNCFAIRHFENKFAVETLICATTHMPDKGANT | inactive |
| EASNCFAIRHFENKFAVETLICATTRPEVRMVGD | inactive |
| EASNCFAIRHFENKFAVETLICATVCWST | 0.103 |
| EASNCFAIRHFENKFAVETLICATWEMAWSWVES | inactive |
| EASNCFAIRHFENKFAVETLICATWGADRDWDAA | inactive |
| EASNCFAIRHFENKFAVETLICATWHFWRCDTSD | inactive |
| EASNCFAIRHFENKFAVETLICAVAL | 0.693 |
| EASNCFAIRHFENKFAVETLICAVFAITLGVLR | 3.82 |
| EASNCFAIRHFENKFAVETLICAVFMWWTIPLGW | inactive |
| EASNCFAIRHFENKFAVETLICAVFSLYVGQLSP | inactive |
| EASNCFAIRHFENKFAVETLICAVGTPIPVSSRW | inactive |
| EASNCFAIRHFENKFAVETLICAVGVV | -0.309 |
| EASNCFAIRHFENKFAVETLICAVKDPWCGDGTV | 2.2 |

| Sequence | amyloid nucleation score |
| --- | --- |
| EASNCFAIRHFENKFAVETLICAVKTRSGSTARG | inactive |
| EASNCFAIRHFENKFAVETLICAVKY | inactive |
| EASNCFAIRHFENKFAVETLICAVLARK | 1.29 |
| EASNCFAIRHFENKFAVETLICAVLIGRVDWVRV | inactive |
| EASNCFAIRHFENKFAVETLICAVLNDVYISWKR | inactive |
| EASNCFAIRHFENKFAVETLICAVMGCPY | 5.09 |
| EASNCFAIRHFENKFAVETLICAVPLTGTVIQLS | inactive |
| EASNCFAIRHFENKFAVETLICAVPSVS | inactive |
| EASNCFAIRHFENKFAVETLICAVSFVVRRGDCG | 2.2 |
| EASNCFAIRHFENKFAVETLICAVSVAYLAALVR | inactive |
| EASNCFAIRHFENKFAVETLICAVSVTW | inactive |
| EASNCFAIRHFENKFAVETLICAVV | 1.75 |
| EASNCFAIRHFENKFAVETLICAVVAWVMEWKAG | -0.444 |
| EASNCFAIRHFENKFAVETLICAVVCWWQCRVTV | inactive |
| EASNCFAIRHFENKFAVETLICAVW | inactive |
| EASNCFAIRHFENKFAVETLICAVWCKGASVRVR | 1.32 |
| EASNCFAIRHFENKFAVETLICAVWDTLHLLV | inactive |
| EASNCFAIRHFENKFAVETLICAVWTVLRYGVNC | inactive |
| EASNCFAIRHFENKFAVETLICAW | inactive |
| EASNCFAIRHFENKFAVETLICAWAQQSEAWGER | 2.58 |

| Sequence | amyloid nucleation score |
| --- | --- |
| EASNCFAIRHFENKFAVETLICAWCKDAVEVGWL | inactive |
| EASNCFAIRHFENKFAVETLICAWCLEKRVIGAC | inactive |
| EASNCFAIRHFENKFAVETLICAWGDRELVCSYQ | inactive |
| EASNCFAIRHFENKFAVETLICAWHSRACPVGER | inactive |
| EASNCFAIRHFENKFAVETLICAWLNKASEGVWV | inactive |
| EASNCFAIRHFENKFAVETLICAWLPERMWSRQ | 5.06 |
| EASNCFAIRHFENKFAVETLICAWMFLFLYRGQS | -0.0572 |
| EASNCFAIRHFENKFAVETLICAWMGVMRVFQST | inactive |
| EASNCFAIRHFENKFAVETLICAWMYLCA | inactive |
| EASNCFAIRHFENKFAVETLICAWRMAERRPVGS | inactive |
| EASNCFAIRHFENKFAVETLICAWSRSPWSQALR | inactive |
| EASNCFAIRHFENKFAVETLICAWTEDKALRLRA | inactive |
| EASNCFAIRHFENKFAVETLICAWVDTCVRCQIY | inactive |
| EASNCFAIRHFENKFAVETLICAWVFTISLWRTV | inactive |
| EASNCFAIRHFENKFAVETLICAWVGPVKPKGRG | inactive |
| EASNCFAIRHFENKFAVETLICAWWKVSQTIVRS | inactive |
| EASNCFAIRHFENKFAVETLICAYASNGEKRSWP | 3.24 |
| EASNCFAIRHFENKFAVETLICAYAVRSVCTTGV | inactive |
| EASNCFAIRHFENKFAVETLICAYCMSNTLMSRV | inactive |

same assay, conditions: random library (experiment): 2

| Sequence | amyloid nucleation score |
| --- | --- |
| EASNCFAIRHFENKFAVETLICATSIYLYMFILV | inactive |
| EASNCFAIRHFENKFAVETLICATSPNSMELRRR | inactive |
| EASNCFAIRHFENKFAVETLICATVTRVSWGSGV | 1.2 |
| EASNCFAIRHFENKFAVETLICAVEVLC | inactive |
| EASNCFAIRHFENKFAVETLICAVH | inactive |
| EASNCFAIRHFENKFAVETLICAVISSMGLHIKW | 1.06 |
| EASNCFAIRHFENKFAVETLICAVLVILLDSSNE | inactive |
| EASNCFAIRHFENKFAVETLICAVMIRRCSSY | inactive |
| EASNCFAIRHFENKFAVETLICAVMSSFIFNFWL | inactive |
| EASNCFAIRHFENKFAVETLICAVMWPFDIFR | 5.26 |
| EASNCFAIRHFENKFAVETLICAVNVT | 4.79 |
| EASNCFAIRHFENKFAVETLICAVNYNMRGGCWY | 5.67 |
| EASNCFAIRHFENKFAVETLICAVRLPSCITPFS | 4.97 |
| EASNCFAIRHFENKFAVETLICAVSNHVRFLYPV | inactive |
| EASNCFAIRHFENKFAVETLICAVVIYFYTGYPL | inactive |
| EASNCFAIRHFENKFAVETLICAVVIYPVTCLEA | inactive |
| EASNCFAIRHFENKFAVETLICAVWESKAYPMCL | inactive |
| EASNCFAIRHFENKFAVETLICAVWFILCFHERS | 0.571 |
| EASNCFAIRHFENKFAVETLICAVYCTFV | inactive |
| EASNCFAIRHFENKFAVETLICAVYVCYETNRHR | 2.25 |
| EASNCFAIRHFENKFAVETLICAWNGISC | 7.75 |
| EASNCFAIRHFENKFAVETLICAWPAPSVYGCGR | 4.58 |
| EASNCFAIRHFENKFAVETLICAWRVETDRILAS | inactive |
| EASNCFAIRHFENKFAVETLICAWSM | 2.69 |

same assay, conditions: random library (experiment): 3

| Sequence | amyloid nucleation score |
| --- | --- |
| EASNCFAIRHFENKFAVETLICATRRMVHDKHVD | inactive |
| EASNCFAIRHFENKFAVETLICATSNCSVVNAME | 0.59 |
| EASNCFAIRHFENKFAVETLICATSNLSFLVEVF | 2.81 |
| EASNCFAIRHFENKFAVETLICATVFWTCDKFRW | inactive |
| EASNCFAIRHFENKFAVETLICATWS | inactive |
| EASNCFAIRHFENKFAVETLICAVASKFPMRNLF | inactive |
| EASNCFAIRHFENKFAVETLICAVAVCDGQLSLG | 2.89 |
| EASNCFAIRHFENKFAVETLICAVEHLWMLGLAT | inactive |
| EASNCFAIRHFENKFAVETLICAVGEYSWICTCK | inactive |
| EASNCFAIRHFENKFAVETLICAVGRWAYIGGT | inactive |
| EASNCFAIRHFENKFAVETLICAVGTCLGVCLIA | inactive |
| EASNCFAIRHFENKFAVETLICAVGTVDKGRWLF | inactive |
| EASNCFAIRHFENKFAVETLICAVGVRGTRQESE | inactive |
| EASNCFAIRHFENKFAVETLICAVISAYTIRLMI | inactive |
| EASNCFAIRHFENKFAVETLICAVLLGQTRFCGT | 1.15 |
| EASNCFAIRHFENKFAVETLICAVLPQCKRVPLG | inactive |

| Sequence | amyloid nucleation score |
| --- | --- |
| EASNCFAIRHFENKFAVETLICAVLRAHLMGRCS | inactive |
| EASNCFAIRHFENKFAVETLICAVPGSVADWSCG | 5.56 |
| EASNCFAIRHFENKFAVETLICAVQRSGCGAYVT | inactive |
| EASNCFAIRHFENKFAVETLICAVRGGRVCRWVV | inactive |
| EASNCFAIRHFENKFAVETLICAVRHRKGNEAKW | inactive |
| EASNCFAIRHFENKFAVETLICAVRMARACDCGR | inactive |
| EASNCFAIRHFENKFAVETLICAVSYYRQVACRG | inactive |
| EASNCFAIRHFENKFAVETLICAVWDRGAESATC | inactive |
| EASNCFAIRHFENKFAVETLICAVWITSTRRSWS | 2.29 |
| EASNCFAIRHFENKFAVETLICAVWRRCRSPFGV | 5.1 |
| EASNCFAIRHFENKFAVETLICAWFSVLSCARYL | inactive |
| EASNCFAIRHFENKFAVETLICAWGLHLEDCQMM | inactive |
| EASNCFAIRHFENKFAVETLICAWGLLHLATTWR | -0.274 |
| EASNCFAIRHFENKFAVETLICAWVRIRNALRAA | inactive |
| EASNCFAIRHFENKFAVETLICAY | 0.996 |
